Data taken from the supplement of paper PMC10126150.
Values marked as one replicate rest on one cluster of the flow cell; about a third of the high ones do not repeat.

System: ATP
Assay: switch fluorescence ratio, 500 uM ATP over buffer (Cy3 cluster intensity, sum of 5 cycles each) (fold (ratio)); higher = stronger signal-on switching upon ATP binding; sequences stand for … in TCGTCGGCAGCGTCAGATGTGTATAAGAGACAGTTTTTTTTTTTTTTTTTTTTTTTTT…TC
Details: aptamer strand: ATP DNA aptamer (quencher-CACCTGGGGGAGTATTGCGGAGGAAGG + anchor), 100 nM annealed; ATP concentration: 500 uM; one replicate
Summary of the method: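 Five buffer/ATP imaging cycles were run on Cy3-labelled switching-strand clusters on a modified Illumina MiSeq flow-cell, with NaOH stripping and re-annealing between cycles. In each cycle, clusters annealed to 100 nM quencher-labelled ATP aptamer were imaged in selection buffer, then after 15 min with 500 uM ATP at 22 °C. Per cluster, the fluorescence ratio is summed target-cycle over summed buffer-cycle Cy3 intensity, averaged per switch-domain sequence. Only clusters within 100-1000 RFU were kept.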
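Further: ATP exposure 15 min at 22 °C before imaging.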

Sequence | switch fluorescence ratio
CTATAACTGA | 0.948
TTAGTATAGA | 0.997
AAATCGTGCG | 1
CCAAGGTGCC | 1.71
GACTGCATCT | 1.03
GAAAATTTTG | 0.979
GCCCCTTCTT | 1.02
TGGTGCGAAC | 1.05
TAAGGGGCGC | 0.992
ATAGGTATTT | 1.01
GCGCTTAGGA | 1.04
TAGGATAACG | 1
TACCAGGAAT | 0.995
ACAATGATCG | 0.991
CAAGTAGTCT | 1.06
GGGTTCGCGA | 1.03
AAATGTTTCG | 1.05
GTGGATAGGA | 0.993
TTATGTAACA | 1.07
CCTGCGAACG | 1.44
ACATGCAGCG | 1.01
TATCCACTGG | 1.06
GTTGGGGCCC | 1.01
CTTTCTACGT | 1.39
TAACCGCCTG | 1.11
ACTGTTAATC | 1.03

Sequence | switch fluorescence ratio
TTCATATACG | 1.04
GTGACCGGAT | 1.07
CTTGGCGACG | 1.01
GATAGCGTGG | 0.999
GCCGAGGGTG | 1.11
CCGAGTGGTA | 1.27
GATATTGGGT | 1.04
ATGTATTTCA | 0.988
AAACGTCTTA | 0.997
TAAATGGAG | 0.983
CAGGTACACA | 1.07
TACAATACA | 1.25
TCAGCGGGA | 1.02
ACCACTTACG | 1.54
AGTCGCGAGG | 0.995
GTAGGATCTG | 0.968
TCTCAGGGAG | 0.978
GAAAGAATAA | 1.08
ATTTCGGGAC | 1.03
GAGGCAGACA | 1.07
AGTAGTGATA | 0.962
TTAACAGTCT | 1.05
TGTCGAGTTT | 0.954
CCTGAAGCGA | 4.59
GAGTGATGGG | 0.968
GTAGTTATCG | 0.95

Sequence | switch fluorescence ratio
TCGGCGATGT | 0.999
TATTACTTTT | 1.01
GCTAGGGCTG | 1.01
TGTTTGCGAC | 0.993
TAAGTAGATC | 0.941
GAAATTGCGA | 1.03
TCAAATATGC | 1.05
AGAAAATATC | 1.02
CTCGCAGCAG | 1.8
CGGTGCTAAT | 1.02
ATGGTGAGTC | 0.969
TACCAGGGGG | 1.13
ACTCAAGTGC | 1.33
TACAAAGTTT | 0.97
CGTAATCCGT | 0.996
CGAAACGTCC | 1.26
TTGACTAGTT | 0.983
CTGTGATCCT | 1.06
GACCGCGCAC | 3.04
TGTGGGCTAG | 0.934
TTCGATATGC | 1.06
CTTGCTGATG | 1.01
ATCTACGTAT | 1.16
CGCGGCATTT | 1.09
AGCCAGTGTT | 0.968
AACTAGTCGG | 1.02

Sequence | switch fluorescence ratio
CGGTCGCAGG | 1.03
TGCCGTAGCT | 1.03
GTGGGAGCC | 0.981
CTAGTCTTAC | 1.12
TACTTGATTA | 0.985
CACGGATCCT | 1.01
GACTACCTTT | 1.05
GGCTCAATTG | 1
GCTGAGTGTA | 1.04
TACGTATTAC | 2.14
GGTTTTGAAA | 0.977
AGAGCTGGAG | 0.969
GATGCCCCTC | 1.02
GAACAATGCG | 1.05
CAGCGATGAC | 2.37
CACCTATTCT | 1.02
ATATGGATAT | 1
TGTTTGCGGA | 1.01
GCGCGACATC | 1.23
TTGCTTTGGT | 0.999
CCAGGTTAGA | 1.09
TAAGCGAATA | 1.09
GGGATAATCG | 1.02
GTGGTTTATG | 0.99
ATCGTTGGTC | 0.937
ATGCAGTTAC | 1.59

Sequence | switch fluorescence ratio
TTATCGTCCC | 1.02
TTCTACGTAC | 1.7
CGATTATGCT | 0.96
TTATGGACAG | 0.959
CCGAGGGATA | 2.16
AGGAGGTTTT | 1.02
GAGTTCAAAG | 1.03
GCAGATCATT | 0.969
ATTAAGCGCC | 0.989
TCGGGTAGGA | 0.976
ATGGCCTAAT | 1.07
ATGAGCCCTC | 1.03
TTAATTCTCC | 0.986
TTTGTACGAT | 0.981
CCTTTGTGCA | 1.08
AAGTCACAAT | 1.06
AGTTCTACAC | 0.964
CAGAAGGGT | 0.984
CCAGCAGGA | 1.23
CTAGGACTTT | 0.994
CATGTCACCG | 0.985
GTACCTGCCT | 1.54
GGGGATGGAG | 0.96
ATTCGTCGCC | 1.01
GTGAAGCGCG | 1
GGTCTTTTTG | 0.994

Sequence | switch fluorescence ratio
CTACCCGGT | 1.07
TCCGGGTCGG | 0.997
GATATTAACG | 1
CAGCCCTGGC | 0.945
CCCTGGGGTC | 1.1
AGGAAGACGC | 1.03
TTTAAGTAGA | 1.03
CTATAGCCAG | 0.988
GCACCTGTTT | 1.02
TTCGGGTCTC | 0.974
AATTATGTGG | 0.979
ATCATAAACC | 1.12
AGCCGAATAT | 0.991
AATCGTAAAG | 1.05
CACTTCAAGG | 1.03
CGTCTGCCTA | 1.05
TGGAATAAAA | 0.965
TGGGTGTTAC | 0.993
GCCTGGGA | 0.966
ATCGAGGA | 0.964
TAATCGTCCT | 1.07
ACGTACGGGC | 1.45
TCATGCGCTT | 1.06
